Reference: paper PMC4336329 (PLoS ONE, 2015)
The campaign covered roughly 310,000 compounds. About 2,200 (0.71%) showed an effect of 50% or more. Effects have a minus sign here. The list shows a part of the results.

These molecules were tested against human ether-à-go-go-related gene (hERG) potassium channel (human, UniProt Q12809) (assay: primary screen, population patch clamp on CHO cells stably expressing hERG).
human ether-à-go-go-related gene (hERG) potassium channel, sequence (Q12809 whole entry, looked up): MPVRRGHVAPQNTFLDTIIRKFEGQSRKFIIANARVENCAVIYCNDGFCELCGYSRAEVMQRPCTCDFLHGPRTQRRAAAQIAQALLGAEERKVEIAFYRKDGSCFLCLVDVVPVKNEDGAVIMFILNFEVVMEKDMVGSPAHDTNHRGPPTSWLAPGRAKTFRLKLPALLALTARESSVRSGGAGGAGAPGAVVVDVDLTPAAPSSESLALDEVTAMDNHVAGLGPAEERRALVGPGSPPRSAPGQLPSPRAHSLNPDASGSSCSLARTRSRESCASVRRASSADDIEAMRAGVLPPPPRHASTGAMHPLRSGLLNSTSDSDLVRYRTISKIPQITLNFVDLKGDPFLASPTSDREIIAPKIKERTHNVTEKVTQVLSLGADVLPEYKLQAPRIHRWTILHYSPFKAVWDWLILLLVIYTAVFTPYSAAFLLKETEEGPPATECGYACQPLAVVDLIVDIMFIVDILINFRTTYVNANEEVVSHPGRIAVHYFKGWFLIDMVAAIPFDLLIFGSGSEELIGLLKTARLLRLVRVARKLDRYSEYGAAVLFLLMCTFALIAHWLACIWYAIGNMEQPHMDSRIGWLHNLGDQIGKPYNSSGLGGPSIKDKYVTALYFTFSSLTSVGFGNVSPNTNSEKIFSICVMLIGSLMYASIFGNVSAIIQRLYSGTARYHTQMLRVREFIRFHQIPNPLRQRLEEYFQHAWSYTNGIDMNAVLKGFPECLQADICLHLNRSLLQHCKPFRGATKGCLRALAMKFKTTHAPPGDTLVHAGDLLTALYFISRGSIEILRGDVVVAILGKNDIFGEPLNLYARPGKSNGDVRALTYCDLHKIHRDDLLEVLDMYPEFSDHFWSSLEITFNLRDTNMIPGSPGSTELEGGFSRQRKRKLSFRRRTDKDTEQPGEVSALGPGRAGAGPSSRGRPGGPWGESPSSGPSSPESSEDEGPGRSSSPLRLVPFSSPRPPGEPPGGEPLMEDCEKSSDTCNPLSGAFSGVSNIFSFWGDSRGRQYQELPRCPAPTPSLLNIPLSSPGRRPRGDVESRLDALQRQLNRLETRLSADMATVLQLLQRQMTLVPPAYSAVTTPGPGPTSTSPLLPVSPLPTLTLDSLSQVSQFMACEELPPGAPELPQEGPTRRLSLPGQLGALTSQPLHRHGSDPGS

Row | SMILES | hERG current change (%, negative = inhibition) at 1uM [%]
1 | C(=N/Nc1nc(-c2ccccc2)cc(-c2ccccc2)n1)/c1cccnc1 | 3.94
2 | CC1(C)CC(=O)CC(=O)/C1=N\Nc1c(Cl)cc(Cl)cc1Cl | 8.05
3 | CC(Cc1ccccc1)NC(=O)C(c1ccc(N)cc1)c1ccc(N)cc1 (stereo not shown) | 13.8
4 | Cc1nc(N2CCOCC2)nc(N2CCC(C)CC2)c1[N+](=O)[O-] | 11.1
5 | CCC(CO)Oc1cc(NCc2ccccc2F)c2ncn(C(C)C)c2c1 (stereo not shown) | -0.0644
6 | COc1ccc(C(C(=O)NCC2CCCO2)N(C(=O)CNC(=O)c2cccs2)c2ccccc2)cc1OC (stereo not shown) | 13.5
7 | CC(C)c1ccc(NC(=O)CN2C(=O)NC(Cc3c[nH]c4ccccc34)C2=O)cc1 (stereo not shown) | 1.92
8 | O=C(CCC(=O)c1ccc(F)cc1)NN1C(=O)NC2(CCCCC2)C1=O | 9.28
9 | Nc1c(NCCC2=CCCCC2)c(=O)[nH]c(=O)n1Cc1ccccc1 | 2.01
10 | COCCCn1c(SCC(=O)N2CCCC(C)C2)nnc1-c1ccco1 (stereo not shown) | -15.2
11 | COc1ccc(NC(=O)CN2C(=O)COc3ccc(S(=O)(=O)N4CCOCC4)cc32)cc1 | 10.6
12 | O=C(NC1CC1)c1ccc2c(c1)S(=O)(=O)c1cc(Cl)ccc1C2=O | 6.63
13 | COC(=O)C[C@]1(C(=O)OC)CN(C#N)N(c2ccc(Cl)cc2)C12c1ccccc1-c1ccccc12 | 3.78
14 | Cc1ccccc1SCC(=O)OCC(=O)Nc1sccc1C(N)=O | 9.21
15 | CC(=O)C1=C(C)NC(=O)CC1c1ccc(Br)cc1 (stereo not shown) | 16.4
16 | Fc1ccc(CNc2nc3ccccc3n3cnnc23)cc1 | 7.15
17 | CCc1nnc(NC(=O)c2cc3ccccc3oc2=O)s1 | 14.8
18 | COc1ccc(OC)c(S(=O)(=O)NCc2csc(-c3ccccc3)n2)c1 | 5.59
19 | O=C(CCNS(=O)(=O)c1ccccc1F)N1CCN(S(=O)(=O)c2cccc(F)c2)CC1 | 10.4
20 | CC(OC(=O)C1=COCCO1)C(=O)Nc1cc(S(=O)(=O)N2CCCCC2)ccc1Cl (stereo not shown) | 7.78
21 | O=C(c1ccc(F)cc1F)N1CCCC(c2nc(-c3cccs3)no2)C1 (stereo not shown) | 12.3
22 | CCOC(=O)c1ccc(Oc2c(C)oc3cc(OS(C)(=O)=O)ccc3c2=O)cc1 | -7.39
23 | O=C(NCc1ccc(Cl)cc1)c1ccccc1CCc1ccccc1 | 1.45
24 | O=C(COc1ccccc1)Nc1ccccc1C(=O)NC1CC1 | 7
25 | Cc1ccc(S(=O)(=O)N2CCN(c3ccc([N+](=O)[O-])c(NCCN4CCOCC4)c3)CC2)cc1 | 9.41
26 | O=c1c2c([nH]c3ccccc13)CCCC2 | 17.9
27 | Cc1onc(-c2ccccc2Cl)c1C(=O)N(C)CC(=O)Nc1ccc(F)c(F)c1F | -4.97
28 | COc1ccc(NC(=O)CN(c2cc(C)cc(C)c2)S(=O)(=O)c2c(C)noc2C)cc1OC | 9.9

Row | SMILES | hERG current change (%, negative = inhibition) at 1uM [%]
29 | O=C(Nc1cc(C(F)(F)F)ccc1Cl)c1cc2nc3c(c(C(F)(F)F)n2n1)CCCC3 | 12.3
30 | CCC1(Cc2ccccc2)NC(=O)c2ccccc2O1 (stereo not shown) | 12.3
31 | COc1ccc(Cc2nnc(NC(=O)c3cc(OC)cc(OC)c3)s2)cc1 | 13.9
32 | CN1CCN(S(=O)(=O)c2cccc(C(=O)N(c3ccccn3)C3CCCCC3)c2)CC1 | -11
33 | CC(=O)N1CCN(c2ccc(NCc3ccc(C(C)C)cc3)cc2)CC1 | 6.7
34 | CCOc1ccc(NC(=O)CCC(=O)Nc2cc(OC)c(NC(=O)c3ccco3)cc2OC)cc1 | 13.1
35 | O=Cc1ccc(OCCN2CCCC2=O)cc1 | 14.8
36 | Cc1ccc(-c2csc(NC(=S)NC(=O)c3ccco3)n2)cc1 | 9.45
37 | O=C(COC(=O)Cc1ccc(Cl)cc1)NC1CCCC1 | 10.9
38 | CCN1CCN(C(=O)CCc2nnc3ccc(N4CCN(c5cccc(OC)c5)CC4)nn23)CC1 | 10.3
39 | CCn1c(=O)cc(SCC(=O)Nc2ccc3c(c2)OCCO3)c2ccccc21 | 8.52
40 | O=P(COCCOCP(=O)(c1ccccc1)c1ccccc1)(c1ccccc1)c1ccccc1 | 20
41 | COc1ccc(CCNC(=O)CSc2nc3sc(C(=O)O)c(C)c3c(=O)[nH]2)cc1OC | -0.155
42 | Cc1ccccc1C(=O)NNC(=O)/C=C/c1ccccc1 | 11.3
43 | CC1CN(S(=O)(=O)c2ccc(C(=O)N3CCc4ccccc43)cc2)CC(C)O1 (stereo not shown) | 11.6
44 | CCOc1ccccc1N(C)C(=O)CCS(=O)(=O)c1ccc2c(c1)NC(=O)CO2 | 16.2
45 | N#CC1=C(S)N(c2ccccc2)C(c2cccs2)NC1=O (stereo not shown) | 2.05
46 | CN(Cc1c(F)cccc1Cl)C(=O)c1cccc(S(=O)(=O)NCc2ccccc2)c1 | 6.08
47 | O=c1nc2n(Cc3ccccc3)c3ccccc3cc-2c(=O)[nH]1 | 5.26
48 | COC(=O)c1cccc2c1NC(=O)C2=O | 9.35
49 | CCN(CC)C(=O)Cn1cc(C(=O)C(=O)NCc2cccnc2)c2ccccc21 | 14.1
50 | CC(NC(=O)C(=O)NCCC1=CCCCC1)c1ccccc1 (stereo not shown) | 8.63
51 | ClC1(Cl)CC1CSc1nc2ccccc2[nH]1 (stereo not shown) | 1.48
52 | Cn1cnc2c1c(=O)[nH]c(=O)n2C | 15.7
53 | CC1CCCN(C(=O)c2ccc3c(=O)n(C4CCCC4)c(=S)[nH]c3c2)C1 (stereo not shown) | 7.94
54 | Cc1ccccc1-c1cc2nc(C)c(C)c(=O)n2[nH]1 | 9.82
55 | Cc1oc(-c2ccccc2Cl)nc1CS(=O)CC(=O)NCc1cccs1 (stereo not shown) | 11.1
